Values joined by “and” are separate entries in the source; they are usually repeats but may differ in a detail not shown here. Equal entries are not always repeated. The list shows a part of the results. Shown are side measurements of this screen, not its main read-out; they come without a call.
Key:
Assay in all cases: Primary Screen for Target Class Profiling of Small Molecule Inhibitors of Methyltransferases
[1] = biological target: Glycine N-methyltransferase (Homo sapiens) (UniProt Q14749); conditions: purified enzyme, MTase-Glo SAH luminescence; measured here: GNMT inhibition; at 40 µM; stronger effect = lower value
Procedure, shortened: (§1)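 Each enzyme was assayed with SAM and its substrate. SAH formation detected by MTase-Glo luminescence; single-point 40 uM screen[…].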

[2] = biological target: Guanidinoacetate N-methyltransferase (Homo sapiens) (UniProt Q14353); conditions: purified enzyme, MTase-Glo SAH luminescence; measured here: GAMT inhibition; at 40 µM; stronger effect = lower value
Procedure, shortened: as §1

[3] = biological target: Histamine N-methyltransferase (Homo sapiens) (UniProt P50135); conditions: purified enzyme, MTase-Glo SAH luminescence; measured here: HNMT inhibition; at 40 µM; stronger effect = lower value
Procedure, shortened: as §1

[4] = biological target: Nicotinamide N-methyltransferase (Homo sapiens) (UniProt P40261); conditions: purified enzyme, MTase-Glo SAH luminescence; measured here: NNMT inhibition; at 40 µM; stronger effect = lower value
Procedure, shortened: as §1

[5] = biological target: Phenylethanolamine N-methyltransferase (Homo sapiens) (UniProt P11086); conditions: purified enzyme, MTase-Glo SAH luminescence; measured here: PNMT inhibition; at 40 µM; stronger effect = lower value
Procedure, shortened: as §1
% is scaled to controls: 0 for no effect and ±100 for the full control effect.

Row | Structure (SMILES) | activity change, negative = inhibition [1] | activity change, negative = inhibition [2] | activity change, negative = inhibition [3] | activity change, negative = inhibition [4] | activity change, negative = inhibition [5]
1 | O=C1NCCOCCN(C(=O)Nc2ccc3c(c2)OCCO3)[C@@H]2CCCC[C@H]12 | -2.83% | -4.88% | -2.15% | -3.93% | -0.23%
2 | CC(C)NC(=O)c1ccc2c(=O)n(C(C)C)c3nn(CC(=O)c4ccc(F)cc4)c(=O)n3c2c1 | 3.54% | 0% | 11.7% | -4.23% | 4.58%
3 | COc1ccc(CCN2C(=O)c3cc4occc4n3CC2(C)C(=O)NC2CCCCC2)c(OC)c1 (stereo not drawn) | 3.95% | 0.405% | 8.8% | -0.263% | 6.36%
4 | OCC1OC(Oc2cc(O)cc(/C=C/c3ccc(OC4OC(CO)C(O)C(O)C4O)cc3O)c2)C(O)C(O)C1O (stereo not drawn) | 0% | 0.842% | 4.3% | -9.05% | 4.58%
5 | Cc1ccc(CCN2C(=O)CSc3c(c4ccccc4n3C)C2C(=O)NCCCOC(C)C)cc1 (stereo not drawn) | -4.8% | -2.75% | 1.65% | -5.55% | -2.74%
6 | CCCOCCc1nc2c([nH]1)CC(C)(C)CNC2=O | -1.49% | -1.3% | 0.316% | -1.77% | -2.62%
7 | COc1c(C)c(C(=O)c2ccc(N)c(C(=O)O)c2)n2ccccc12 | -6.02% and -9.56% | -20.3% and -3.08% | 3.37% and 6.56% | -24% and -16.9% | -4.44% and -4.95%
8 | Cc1cccc(CN2C(=O)c3nc4ccccc4n3CC2(C)C(=O)NCc2ccccc2)c1 (stereo not drawn) | 2.88% | 0.426% | 1.87% | -1.49% | 0.532%
9 | COc1cccc(NC(=O)CN(C)S(=O)(=O)c2ccc3[nH]c4c(c3c2)CCCC4)c1 | -3.11% | 0% | -3.11% | -4.26% | -6.91%
10 | COc1cccc(C(=O)Cn2nc3n(C(C)C)c(=O)c4ccc(C(=O)NCC(C)C)cc4n3c2=O)c1 | -5.48% | 4.3% | -0.84% | 6.7% | 2.95%
11 | C#CC(N)CCC(=O)O (stereo not drawn) | -1.46% | 10.3% | 0.803% | 1.06% | 12.4%
12 | N[C@H](CCCP(=O)(O)O)C(=O)O | 3.88% | 14.5% | 10.3% | -5.16% | 1.81%
13 | CS(=O)(=O)N1CCc2ccc(C(=O)NCc3ccc(OC(F)(F)F)cc3)cc21 | -4.89% | -1.29% | -1.62% | -2.13% | -5.66%
14 | CC(NCc1cn(CCC(N)=O)c2ccccc12)c1ccccc1-n1cccn1 (stereo not drawn) | -2.32% | 1.5% | -24.3% | -0.854% | -0.166%
15 | Cc1ccc(-c2nnn3c2nc(N2CCC(C)CC2)c2ccccc23)cc1 | -1.14% | 1.15% | 4.84% | -1.98% | -0.992%
16 | O=S(=O)(c1ccc2[nH]c3c(c2c1)CCCC3)N1CCN(C2CCCCC2)CC1 | 2.26% | 4.4% | 0.57% | 5.71% | 4.79%
17 | CCOc1cccc(CN2CC(C(=O)NCc3ccncc3)C3(CCOCC3)C2)c1 (stereo not drawn) | -5% | -14.3% | -4.99% | -11.4% | -6.27%
18 | CN(C)CCN1C(=O)c2cc3occc3n2CC1(C)C(=O)NC1CCCCC1 (stereo not drawn) | 0.234% | 0% | -7.34% | 9.54% | 1.58%
19 | COC(=O)C(CC1(OC(=O)C(C)C)c2ccccc2N2C(=O)C(C)(C)N(O)C21)n1cnc2ccccc2c1=O (stereo not drawn) | -4.91% | -5.54% | 2.14% | -18.1% | -4.9%
20 | CC(C)CCNC(=O)C1(C)Cn2c(nc3ccccc32)C(=O)N1Cc1ccccc1Cl (stereo not drawn) | -5.16% | 4.79% | 0.036% | -0.44% | 0.685%
21 | COc1ccc(-c2ccnc(N[C@H]3CO[C@H]4[C@@H]3OC[C@@H]4NC(=O)Nc3ccc(C(C)=O)cc3)n2)cc1 | -37% | -8.49% | -20.4% | -22.6% | -6.83%
22 | CC1=C(C(=O)N2CCC(CCC(=O)Nc3ccc4c(c3)OCCO4)CC2)OCCO1 | -0.414% | 2.89% | 1.28% | 0.456% | 5.33%
23 | CCOC(=O)c1cc2n(n1)CC(C)(C(=O)NC1CCC(C)CC1)N(Cc1cccc(F)c1)C2=O (stereo not drawn) | 2.18% | 0% | 1.25% | -1.3% | -0.3%
24 | CN(C)c1ccc(C(=O)N[C@H]2CC(C)(C)[C@@H]3C[C@@](C)(O)CC[C@]23CCC(=O)NC2CC2)cc1 | -2.28% | -1.59% | 0.381% | -2.13% | -6.29%
25 | CN(C)S(=O)(=O)c1cccc(-c2nnc(-c3ccccc3Cl)o2)c1 | 1.09% | 0% | 1.59% | -6.78% | 2.2%
26 | COc1ccc2[nH]c(=O)c3c(c2c1)OC(C)(C)C=C3 | -9.14% | 4.71% | 4.83% | -14.7% | 1.32%
27 | Cc1ccc(Cc2nn3c(SCC(=O)Nc4ccc(C)c(C)c4)nnc3[nH]c2=O)cc1 | -5.34% | 1.63% | -5.45% | -12.1% | -6.41%
28 | O=C([C@H]1O[C@H](CCN2CCC(CO)CC2)CC[C@@H]1O)N1CCN(c2ccccc2)CC1 | -4.9% | -6.75% | -4.09% | -10% | -3.51%
29 | COc1cccc(CNC(=O)Cn2nc3n(CCc4ccccc4)c(=O)c4ccccc4n3c2=O)c1 | -2.32% | 0.957% | 3.13% | -4.12% | -1.67%
30 | CN[C@@H](C)C(=O)N[C@H](C(=O)N1CCC[C@H]1c1nc(C(=O)c2ccc(F)cc2)cs1)C1CCCCC1 | – | 0.254% | – | -16.8% | -0.952%

Source: PubChem BioAssay AID1745853 (National Center for Advancing Translational Sciences (NCATS), 2022)
